About 2,200 (0.71%) of roughly 310,000 compounds showed an effect of 50% or more. Effects have a minus sign here. The list shows a part of the results.
Each molecule was assayed against human ether-à-go-go-related gene (hERG) potassium channel (human, UniProt Q12809) (assay: primary screen, population patch clamp on CHO cells stably expressing hERG).
human ether-à-go-go-related gene (hERG) potassium channel, sequence (Q12809 whole entry, looked up): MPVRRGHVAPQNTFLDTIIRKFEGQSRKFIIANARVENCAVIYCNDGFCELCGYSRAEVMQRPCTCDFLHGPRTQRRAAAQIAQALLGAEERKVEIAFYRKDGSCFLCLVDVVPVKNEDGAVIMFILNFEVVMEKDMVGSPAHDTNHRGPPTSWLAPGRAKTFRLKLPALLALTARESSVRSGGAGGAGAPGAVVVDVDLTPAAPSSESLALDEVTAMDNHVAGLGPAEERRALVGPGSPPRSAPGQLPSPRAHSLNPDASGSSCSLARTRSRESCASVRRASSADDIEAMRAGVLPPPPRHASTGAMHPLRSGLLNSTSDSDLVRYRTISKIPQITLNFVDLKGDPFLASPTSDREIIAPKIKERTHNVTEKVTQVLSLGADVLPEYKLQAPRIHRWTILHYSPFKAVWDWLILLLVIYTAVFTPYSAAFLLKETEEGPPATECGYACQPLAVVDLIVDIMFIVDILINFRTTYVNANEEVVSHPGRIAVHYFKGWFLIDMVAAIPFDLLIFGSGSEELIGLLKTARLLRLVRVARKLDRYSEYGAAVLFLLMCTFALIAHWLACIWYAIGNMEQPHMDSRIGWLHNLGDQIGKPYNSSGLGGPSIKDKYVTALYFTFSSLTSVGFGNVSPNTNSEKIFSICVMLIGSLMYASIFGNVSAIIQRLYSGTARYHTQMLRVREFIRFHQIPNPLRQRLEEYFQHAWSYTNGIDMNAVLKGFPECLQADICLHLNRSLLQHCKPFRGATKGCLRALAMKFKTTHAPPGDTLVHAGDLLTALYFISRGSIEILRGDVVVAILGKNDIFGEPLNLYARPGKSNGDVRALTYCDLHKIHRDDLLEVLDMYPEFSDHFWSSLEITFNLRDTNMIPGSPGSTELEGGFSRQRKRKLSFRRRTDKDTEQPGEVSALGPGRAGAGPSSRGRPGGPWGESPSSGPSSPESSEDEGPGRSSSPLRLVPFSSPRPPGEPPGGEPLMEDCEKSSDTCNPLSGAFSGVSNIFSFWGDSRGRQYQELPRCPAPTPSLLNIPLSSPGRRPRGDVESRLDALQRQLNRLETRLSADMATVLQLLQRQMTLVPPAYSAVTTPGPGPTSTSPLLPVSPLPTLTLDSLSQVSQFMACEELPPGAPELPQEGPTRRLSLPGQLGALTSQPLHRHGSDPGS

| SMILES | hERG current change (%, negative = inhibition) at 1uM [%] |
| --- | --- |
| COCCOc1cc(Nc2nnc(C(F)(F)F)s2)c(Cl)cc1Cl | 7.38 |
| CCCCCC#CCC#CCC#CCC#CCCCC(=O)O | 5.95 |
| CC(=O)Oc1cc2oc(=O)cc(C)c2cc1OC(C)=O | -0.132 |
| O=C(c1ccc(S(=O)(=O)N2CCCCC2)cc1)N1CCCC(C(F)(F)F)C1 (stereo not drawn) | -1.69 |
| CCc1ccc[n+](-c2[nH]c(=O)sc2/C=N/N=C(\N)[O-])c1 | 1.25 |
| COc1ccc(OCc2nc(N)nc(Nc3ccccc3OC)n2)cc1 | 6.5 |
| CCc1c2ccccc2nn1-c1ccccc1C(=O)C(C)=O | 14.2 |
| Cc1ccc(N2C(=O)CC(C)CC2=O)cc1 | 13.8 |
| Nc1ccc(N2CCOCC2)c(Cl)c1 | 7.66 |
| Cc1cc(Cl)c(S(=O)(=O)Nc2ccc(Cl)cn2)cc1OCC(N)=O | 2.94 |
| COc1cc(/C=N/NC(=O)CNc2n[nH]c(=O)[nH]c2=O)ccc1O | 2.69 |
| O=C(Nc1cccc(Cl)c1)c1cc2c(=O)n3ccccc3nc2s1 | -2.14 |
| O=C(Nc1ccccc1)N1CCCC(c2nc(-c3ccc(F)cc3)no2)C1 (stereo not drawn) | 7.45 |
| COc1ccc(NC(=O)CCCN(C)S(=O)(=O)c2ccc(C)cc2)cc1 | -4.72 |
| Cc1cccn2c(=O)c3cc(C(=O)N4COCC4(C)C)n(C)c3nc12 | 11.3 |
| Cn1nc(-c2ccc(Cl)cc2)c2cc(C(=O)N3CCN(C(=O)c4ccco4)CC3)sc21 | -5.27 |
| CCc1ccc(CNC(=O)c2ccc(OC3CCN(C(=O)COC)CC3)cc2)nc1 | 7.93 |
| Cc1ccccc1C1=NCC(=S)Nc2ccc(Cl)cc21 | 5.4 |
| COc1cc(OC)c(C(=O)/C=C/c2ccc(OCc3ccccc3)c(OC)c2)c(OC)c1 | 17.8 |
| COCCn1cc(C(=O)c2cc(Br)ccc2O)cc(C#N)c1=O | 10.5 |
| Br.COc1cccc(C(=O)CN2C3=NCCCN3c3ccccc32)c1 | -61.2 |
| Brc1ccc(Nc2nc3ccccc3n3nnnc23)cc1 | 20.4 |
| O=C(NNC(=O)c1ccccc1Cl)c1csc(N2CCOCC2)n1 | 15.2 |

| SMILES | hERG current change (%, negative = inhibition) at 1uM [%] |
| --- | --- |
| COc1cccc(C2C(C(C)=O)=C(O)C(=O)N2CCNCCO)c1 (stereo not drawn) | 13 |
| CN(C)S(=O)(=O)c1cccc(NC(=O)C(c2ccccc2)c2ccccc2)c1 | 10.6 |
| O=C(c1cc(-c2ccccc2O)on1)N1CCOCC1 | 8.72 |
| NC(=NC(=O)c1ccccc1)N1N=CCC1c1ccccc1 (stereo not drawn) | 10.4 |
| COC(=O)c1ccc(OCC2c3cc(OC)c(OC)cc3CCN2C(=O)c2ccco2)cc1 (stereo not drawn) | 15.2 |
| COCC(C)n1c(SCC(=O)c2cc(C)n(C)c2C)nc2ccccc2c1=O (stereo not drawn) | 7.52 |
| O=C(O)C1=CC2c3ccccc3C1c1ccccc12 | 11.7 |
| O=C1/C(=C\c2ccc(O)c(O)c2)N=C2CCCCCN12 | 7.57 |
| CCOc1cc(C2CC(=O)NC3=C2C(=O)C(C(=O)OC)C(C)C3)cc(Cl)c1O (stereo not drawn) | 14.4 |
| Cc1ccc(S(=O)(=O)N(C)c2ccc(C(=O)NCC3CCCO3)cc2)cc1 (stereo not drawn) | -0.0194 |
| CCCCCC(=O)Nc1cc(S(=O)(=O)N2CCOCC2)ccc1N1CCN(C)CC1 | 2.5 |
| O=C(CN(C(=O)C1CSC(=O)C1)c1cccc(F)c1)NC1CCCC1 (stereo not drawn) | 12.4 |
| CCC(C(=O)OCC(=O)NC(=O)NC(C)(C)C)c1ccccc1 (stereo not drawn) | 17.2 |
| N#CCc1c(C#N)c(N)nc(N2CCN(Cc3ccc4c(c3)OCO4)CC2)c1C#N | -6.91 |
| CCOC(=O)c1cc2nc(-c3ccccc3)cc(C)n2n1 | 11.2 |
| CCOC(=O)COc1coc(CN2CCN(c3ccc(F)cc3)CC2)cc1=O | 7.03 |
| O=C(CSc1nc2c(c(=O)n1-c1ccc(Cl)cc1)SCC2)Nc1nccs1 | 5.38 |
| Cc1ccc(-n2c(SCC(=O)O)nc3sc4c(c3c2=O)C(C)CCC4)cc1 (stereo not drawn) | 1.63 |
| CCOc1cccc(-c2nc3c(s2)CCc2onc(-c4cccc([N+](=O)[O-])c4)c2-3)c1 | 7.47 |
| Cc1cc(C)c2c(N)c(C(=O)c3ccccc3Cl)sc2n1 | 15.3 |
| CCOC(=O)c1ccc(NC(=O)CSc2nnc(-c3ccncc3)n2C)cc1 | 1.65 |
| CCOC(=O)CSc1nc2c(sc(=S)n2Cc2ccco2)c(=O)n1-c1ccc(F)cc1 | -0.523 |

Reference: article PMC4336329 (PLoS ONE, 2015)
